Experimental data as given in patent CN117126289A (SUNSHINE GUOJIAN PHARMACEUTICAL SHANGHAI CO LTD, dated 2023).

Target: T1, 重组Human-TROP-2-HIS蛋白 (human, UniProt P09758 27-274, limits assumed)
T1 construct: Bought protein; also called TROP-2-HIS蛋白 (恺佧, TRP-HM121); not shown: His tag
T1 sequence (looked up): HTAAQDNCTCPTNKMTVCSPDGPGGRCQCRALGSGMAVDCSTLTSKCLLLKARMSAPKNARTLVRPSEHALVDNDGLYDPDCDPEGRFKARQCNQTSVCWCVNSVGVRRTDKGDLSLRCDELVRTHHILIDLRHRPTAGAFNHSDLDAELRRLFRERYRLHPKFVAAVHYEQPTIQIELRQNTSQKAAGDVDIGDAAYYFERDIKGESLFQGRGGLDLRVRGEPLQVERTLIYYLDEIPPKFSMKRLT
Assay: ELISA, coated TROP-2-HIS 200 ng/ml, HRP goat anti-human Fc

Binder | EC50
抗TROP-2/CD3双特异性抗体a (bispecific antibody, Anti-TROP-2 IgG (VH I31D) with an anti-CD3 scFv (VH-L1-VL) in each heavy chain between CH1 and CH2; also called 抗TROP-2/CD3双抗a; 双特异性抗体分子a) heavy: QVQLVQSGPEVKKPGASVKVSCKASGYTFTDYWLGWVRQAPGQGLEWMGNIFPGSAYINYNEKFKGKVTITADTSTSTAYMELSSLRSEDTAVYFCAREGSNSGYWGQGTLVTVSSASTKGPSVFPLAPSSKSTSGGTAALGCLVKDYFPEPVTVSWNSGALTSGVHTFPAVLQSSGLYSLSSVVTVPSSSLGTQTYICNVNHKPSNTKVDKKVEPKSCGGGGSGGGGSGGGGSEVQLVESGGGLVQPGGSLRLSCAASGFTFNTYAMNWVRQAPGKGLEWVARIRSKYNNYATYYADSVKDRFTISRDDSKNTLYLQMNSLRAEDTAVYYCVRHGNFGNSYVSWFAYWGQGTLVTVSSGGGGSGGGGSGGGGSGGGGSQAVVTQEPSLTVSPGGTVTLTCRSSTGAVTTSNYANWVQQKPGQAPRGLIGGTNKRAPGVPARFSGSLLGGKAALTLSGAQPEDEAEYYCALWYSNLWVFGQGTKVEIKRGGGG[sequence of human IgG1 Fc not given] light: DIVMTQSPDSLAVSLGERATINCKSSQSLLNSGNQQNYLAWYQQKPGQPPKLLIYGASTRESGVPDRFSGSGSGTDFTLTISSLQAEDVAVYYCQSDHIYPYTFGQGTKLEIKRTVAAPSVFIFPPSDEQLKSGTASVVCLLNNFYPREAKVQWKVDNALQSGNSQESVTEQDSKDSTYSLSSTLTLSKADYEKHKVYACEVTHQGLSSPVTKSFNRGEC | 16.5 pM
抗TROP-2/CD3双特异性抗体c (bispecific antibody, human IgG1, kappa, Anti-TROP-2 IgG (VH I31D) with an anti-CD3 scFv at the N-terminus of each heavy chain; also called 抗TROP-2/CD3双抗c; 双特异性抗体分子c) heavy: EVQLVESGGGLVQPGGSLRLSCAASGFTFNTYAMNWVRQAPGKGLEWVARIRSKYNNYATYYADSVKDRFTISRDDSKNTLYLQMNSLRAEDTAVYYCVRHGNFGNSYVSWFAYWGQGTLVTVSSGGGGSGGGGSGGGGSGGGGSQAVVTQEPSLTVSPGGTVTLTCRSSTGAVTTSNYANWVQQKPGQAPRGLIGGTNKRAPGVPARFSGSLLGGKAALTLSGAQPEDEAEYYCALWYSNLWVFGQGTKVEIKRGGGGSGGGGSGGGGSQVQLVQSGPEVKKPGASVKVSCKASGYTFTDYWLGWVRQAPGQGLEWMGNIFPGSAYINYNEKFKGKVTITADTSTSTAYMELSSLRSEDTAVYFCAREGSNSGYWGQGTLVTVSS[sequence of human IgG1 constant region not given] light: DIVMTQSPDSLAVSLGERATINCKSSQSLLNSGNQQNYLAWYQQKPGQPPKLLIYGASTRESGVPDRFSGSGSGTDFTLTISSLQAEDVAVYYCQSDHIYPYTFGQGTKLEIKRTVAAPSVFIFPPSDEQLKSGTASVVCLLNNFYPREAKVQWKVDNALQSGNSQESVTEQDSKDSTYSLSSTLTLSKADYEKHKVYACEVTHQGLSSPVTKSFNRGEC | 18.8 pM
